From PubChem BioAssay (Tox21)
Where “and” joins values, the source holds several entries; their conditions need not be identical. Identical values can stand only once. This list was built around the results that the source calls inconclusive (neither active nor inactive); the mix of calls is not that of the screen. For some assays here: A potency beside an inconclusive call is a rough fit, not a confirmed value. Calls of active or inactive are those of the source. Unless noted, the call rests on the fitted dose curve; in most records, active means well fitted curve in the direction sought with a large enough effect in the repeat runs; inconclusive means weak or mixed curves; inactive means no such curve, though single readings can be large; an effect the other way counts as inactive or inconclusive.

How the values were obtained:
[1] = biological target: Estrogen receptor beta (Homo sapiens) (UniProt Q92731); assay: qHTS assay to identify small molecule antagonists of the estrogen receptor beta (ER-beta) signaling pathway (AID 1259378; active means well fitted inhibition curve with a large enough effect in the signal ratio in the repeat runs, not every such curve was filed as active; inconclusive means weak or mixed curves, or effect the other way; inactive means no such curve, though single readings can be large or run the other way; the % refers to the signal ratio; further: potency means the concentration at half of the fitted maximal effect; on activity, negative = inhibition: on the % scale 0 is the no-effect control and ±100 the full control effect); details: ER-beta-UAS-bla HEK293T, beta-lactamase FRET ratio, 16 h
Method in brief: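 Antagonist mode: compounds added to beta-lactamase reporter HEK293T ER-beta-UAS cells stimulated with E2 (1nM final), 16 hr at 37C. LiveBLAzer B/G FRET substrate, 2 hours room temperature, fluorescence read-out.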

[2] = biological target: Androgen receptor (Homo sapiens) (UniProt P10275); assay: qHTS assay to identify small molecule agonists of the androgen receptor (AR) signaling pathway in the presence of an antagonist (AID 1259381; calls by dose curve; further: potency means the concentration at half of the fitted maximal effect; nearly all actives have a fitted effect of over 15% in size); details: MDA-kb2 MMTV-luciferase, AR agonist + nilutamide, 16 h; series mostly up to 42.5 µM
Method in brief: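 Plated MDA-kb2 cells (3,000/well) were pre-incubated 5hr, given nilutamide (3.0uM final) or buffer, then dosed with compounds in DMSO at 15 concentrations. Luciferase activity was quantified by luminescence after 16hr at 37C.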

[3] = biological target: Estrogen receptor (Homo sapiens) (UniProt P03372); assay: qHTS assay to identify small molecule agonists of the estrogen receptor alpha (ER-alpha) signaling pathway in the presence of an antagonist (AID 1259383; calls by dose curve; further: top concentration of the series differs between compounds; on the % scale 0 is the no-effect control and ±100 the full control effect; nearly all actives have a fitted effect of over 15% in size); details: VM7Luc4E2 cells, ERE-luciferase, +ICI-182,780, 22 h; series mostly up to 92.4 µM
Method in brief: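 Luminescent ERE-luciferase reporter, VM7Luc4E2 cells (endogenous ER-alpha); 10.0nM ICI-182,780 final; 15-point compound titration; 22hr at 37C; ONE-Glo, 30min RT.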

[4] = biological target: Progesterone receptor (Homo sapiens) (UniProt P06401); assay: qHTS assay to identify small molecule antagonists of the progesterone receptor (PR) signaling pathway (AID 1346795; active means well fitted inhibition curve with a large enough effect in the signal ratio in the repeat runs, not every such curve was filed as active; inconclusive means weak or mixed curves; the % refers to the signal ratio; further: potency means the concentration at half of the fitted maximal effect; on activity change, negative = inhibition: on the % scale 0 is the no-effect control and ±100 the full control effect); details: PR-UAS-bla HEK293T, beta-lactamase FRET ratio, 16 h
Method in brief: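 Antagonist mode: compounds tested against 1 nM (final) promegestone stimulation in HEK293T cells expressing PR-UAS-bla reporter, 16 hr at 37C, 5% CO2; beta-lactamase activity detected via B/G FRET substrate after 2 hr at room temperature.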

[5] = qHTS assay to identify small molecule agonists of the androgen receptor (AR) signaling pathway in the presence of an antagonist - cell viability counter screen (AID 1259379); details: MDA-kb2 viability, CellTiter-Fluor, 16 h; series mostly up to 92.4 µM; further: nearly all actives have a fitted effect of over 25% in size; further: potency means the concentration at half of the fitted maximal effect
Method in brief: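 Each compound was tested at 15 concentrations on MDA-kb2 cells in the presence of 3.0uM nilutamide. Viability was measured by CellTiter-Fluor fluorescence after a 16 hr incubation at 37C in a CO2-free atmosphere.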

[6] = qHTS assay to identify small molecule agonists of the estrogen receptor beta (ER-beta) signaling pathway - cell viability counter screen (AID 1259380); details: ER-beta-bla HEK293T viability, CellTiter-Glo luminescence, 16 h; series mostly up to 92.4 µM; further: nearly all actives have a fitted effect of over 30% in size; further: potency means the concentration at half of the fitted maximal effect
Method in brief: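 Compounds dissolved in DMSO were pin-transferred onto ER-beta-UAS-bla HEK293T cells that had settled 6 hr, and exposure ran 16 hr at 37C. Following the reporter read, CellTiter-Glo luminescence after 30 min at room temperature indicated cytotoxicity.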

[7] = biological target: Thyrotropin receptor (Homo sapiens) (UniProt P16473); assay: qHTS assay to identify small molecule antagonists of the thyroid stimulating hormone receptor (TSHR) signaling pathway (AID 1259385; calls by dose curve; further: nearly all actives have a fitted effect of over 20% in size; further: potency means the concentration at half of the fitted maximal effect; on activity change, negative = inhibition: on the % scale 0 is the no-effect control and ±100 the full control effect); details: TSHR-HEK293 cAMP HTRF, TSH-stimulated antagonist mode; activity change, negative = inhibition: at 92.4 µM (top of the series) unless noted
Method in brief: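 Antagonist mode: compound-treated TSHR-expressing HEK293 cells were stimulated with 1.5 ng/mL TSH (final) in presence of Ro20-1724 for 30 min at RT. HTRF cAMP detection after 1 h; each compound tested at 15 concentrations, triplicate.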

[8] = qHTS assay to identify small molecule agonists of the estrogen receptor alpha (ER-alpha) signaling pathway in the presence of an antagonist - cell viability counter screen (AID 1259386); details: VM7Luc4E2 viability, CellTiter-Fluor fluorescence, 22 h; series mostly up to 92.4 µM;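 further: potency means the concentration at half of the fitted maximal effect; cells exposed to compounds for 22 h at 37 °C before the viability read; nearly all actives have a fitted effect of over 30% in size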
Method in brief: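 Using estrogen-depleted VM7Luc4E2 cells, the 15-concentration compound series was applied together with 10.0nM ICI-182,780 and incubated 22hr at 37C/5% CO2. Cell viability was then scored by CellTiter-Fluor.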

[9] = qHTS assay to identify small molecule agonists of the progesterone receptor (PR) signaling pathway - cell viability counter screen (AID 1346799; calls by dose curve; further: nearly all actives have a fitted effect of over 45% in size; further: potency means the concentration at half of the fitted maximal effect); details: PR-UAS-bla HEK293T viability, CellTiter-Glo luminescence, 16 h; series mostly up to 92.4 µM
Method in brief: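 Cells (PR-UAS-bla HEK293T) are plated at 3,000/well in 2% charcoal-stripped FBS medium, rested 6 hr, dosed and incubated 16 hr at 37C. CellTiter-Glo is then added and luminescence measured after 30 min at room temperature.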

[10] = biological target: Progesterone receptor (Homo sapiens) (UniProt P06401); assay: qHTS assay to identify small molecule agonists of the progesterone receptor (PR) signaling pathway (AID 1346784; calls by dose curve; further: on the % scale 0 is the no-effect control and ±100 the full control effect; nearly all actives have a fitted effect of over 30% in size); details: PR-UAS-bla HEK293T, beta-lactamase FRET ratio, 16 h; activation: at 92.4 µM (top of the series) unless noted
Method in brief: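 Cells (PR-UAS-bla HEK 293T, GripTite) were plated in assay medium containing 2% charcoal-stripped FBS and incubated 6 hr. Test compounds in DMSO were added for 16 hr at 37C. FRET substrate was then loaded for 2 hr at room temperature before fluorescence reading.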

[11] = qHTS assay to identify small molecule antagonists of the TGF-beta/Smad signaling pathway - cell viability counter screen (AID 1346824); details: SBE-bla HEK293T viability, CellTiter-Glo luminescence; series mostly up to 76.8 µM; further: nearly all actives have a fitted effect of over 50% in size; further: potency means the concentration at half of the fitted maximal effect
Method in brief: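 Cytotoxicity counter-screen run in the same wells as the beta-lactamase Smad reporter read: CellTiter-Glo luminescence after 30 min at room temperature. HEK 293T SBE-bla cells had 5 hr compound exposure at 37 C with TGF-beta1 (0.25 ng/mL stock).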

[12] = qHTS assay to identify small molecule antagonists of the estrogen receptor beta (ER-beta) signaling pathway - cell viability counter screen (AID 1259382); details: ER-beta-UAS-bla HEK293T viability, CellTiter-Glo luminescence, 16 h; series mostly up to 92.4 µM; further: potency means the concentration at half of the fitted maximal effect; nearly all actives have a fitted effect of over 55% in size
Method in brief: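 CellTiter-Glo ATP luminescence measured after the LiveBLAzer read in the same wells; ER-beta-UAS-bla HEK293T cells, 16 hr compound treatment with 1nM 17-beta-estradiol agonist at 37C, 5% CO2.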

[13] = qHTS assay to identify small molecule antagonists of the progesterone receptor (PR) signaling pathway - cell viability counter screen (AID 1346798); details: PR-UAS-bla HEK293T viability, CellTiter-Glo luminescence, 16 h; series mostly up to 92.4 µM; further: potency means the concentration at half of the fitted maximal effect; nearly all actives have a fitted effect of over 50% in size
Method in brief: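 Counter screen for cytotoxicity: viability of PR-UAS-bla HEK293T cells was measured with CellTiter-Glo luminescence following 16 hr compound exposure in the presence of R5020.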

[14] = activity, negative = inhibition: at 92.4 µM (top of the series) unless noted
[15] = activity change, negative = inhibition: at 92.4 µM (top of the series) unless noted
Tags describe the fitted curve by direction and shape or compound fluorescence and quenching.

Sequence of UniProt Q92731 (Q92731 whole entry, looked up): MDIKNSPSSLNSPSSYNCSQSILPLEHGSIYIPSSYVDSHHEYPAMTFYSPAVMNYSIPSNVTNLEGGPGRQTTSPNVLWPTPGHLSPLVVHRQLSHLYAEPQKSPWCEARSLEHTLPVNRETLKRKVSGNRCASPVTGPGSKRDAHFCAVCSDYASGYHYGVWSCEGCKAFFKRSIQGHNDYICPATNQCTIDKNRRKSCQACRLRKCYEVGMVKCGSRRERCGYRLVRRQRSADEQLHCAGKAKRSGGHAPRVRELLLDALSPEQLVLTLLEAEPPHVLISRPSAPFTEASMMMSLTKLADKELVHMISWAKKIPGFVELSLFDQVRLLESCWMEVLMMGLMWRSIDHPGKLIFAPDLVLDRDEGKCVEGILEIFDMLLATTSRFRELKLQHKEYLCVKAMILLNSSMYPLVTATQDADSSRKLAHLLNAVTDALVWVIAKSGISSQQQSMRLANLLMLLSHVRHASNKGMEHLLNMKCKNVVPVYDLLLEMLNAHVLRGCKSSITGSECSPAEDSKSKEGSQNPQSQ
Sequence of UniProt P06401 (P06401 whole entry, looked up): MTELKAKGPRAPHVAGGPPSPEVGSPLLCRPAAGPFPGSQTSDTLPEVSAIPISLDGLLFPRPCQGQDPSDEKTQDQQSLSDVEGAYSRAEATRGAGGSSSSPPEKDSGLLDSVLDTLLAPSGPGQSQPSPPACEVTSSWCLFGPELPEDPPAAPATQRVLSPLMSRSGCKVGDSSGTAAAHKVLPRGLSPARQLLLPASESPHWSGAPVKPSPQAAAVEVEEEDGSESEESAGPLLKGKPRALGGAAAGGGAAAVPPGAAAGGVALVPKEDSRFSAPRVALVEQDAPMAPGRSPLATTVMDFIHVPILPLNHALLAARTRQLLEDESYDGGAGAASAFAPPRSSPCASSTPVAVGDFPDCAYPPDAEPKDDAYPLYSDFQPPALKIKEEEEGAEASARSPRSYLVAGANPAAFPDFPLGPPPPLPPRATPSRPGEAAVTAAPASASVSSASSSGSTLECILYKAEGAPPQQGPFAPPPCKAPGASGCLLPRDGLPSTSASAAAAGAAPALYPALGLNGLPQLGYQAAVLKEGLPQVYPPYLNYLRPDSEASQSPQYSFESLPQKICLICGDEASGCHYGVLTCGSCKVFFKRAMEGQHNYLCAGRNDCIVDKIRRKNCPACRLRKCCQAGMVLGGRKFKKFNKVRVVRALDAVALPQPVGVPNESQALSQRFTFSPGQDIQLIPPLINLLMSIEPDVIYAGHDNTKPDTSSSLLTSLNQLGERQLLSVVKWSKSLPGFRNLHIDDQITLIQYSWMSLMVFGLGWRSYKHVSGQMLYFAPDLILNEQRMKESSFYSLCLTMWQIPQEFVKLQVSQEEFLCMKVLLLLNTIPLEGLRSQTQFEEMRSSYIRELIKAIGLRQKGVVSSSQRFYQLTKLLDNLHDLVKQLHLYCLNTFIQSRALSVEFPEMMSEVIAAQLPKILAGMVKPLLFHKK
Sequence of UniProt P16473 (P16473 whole entry, looked up): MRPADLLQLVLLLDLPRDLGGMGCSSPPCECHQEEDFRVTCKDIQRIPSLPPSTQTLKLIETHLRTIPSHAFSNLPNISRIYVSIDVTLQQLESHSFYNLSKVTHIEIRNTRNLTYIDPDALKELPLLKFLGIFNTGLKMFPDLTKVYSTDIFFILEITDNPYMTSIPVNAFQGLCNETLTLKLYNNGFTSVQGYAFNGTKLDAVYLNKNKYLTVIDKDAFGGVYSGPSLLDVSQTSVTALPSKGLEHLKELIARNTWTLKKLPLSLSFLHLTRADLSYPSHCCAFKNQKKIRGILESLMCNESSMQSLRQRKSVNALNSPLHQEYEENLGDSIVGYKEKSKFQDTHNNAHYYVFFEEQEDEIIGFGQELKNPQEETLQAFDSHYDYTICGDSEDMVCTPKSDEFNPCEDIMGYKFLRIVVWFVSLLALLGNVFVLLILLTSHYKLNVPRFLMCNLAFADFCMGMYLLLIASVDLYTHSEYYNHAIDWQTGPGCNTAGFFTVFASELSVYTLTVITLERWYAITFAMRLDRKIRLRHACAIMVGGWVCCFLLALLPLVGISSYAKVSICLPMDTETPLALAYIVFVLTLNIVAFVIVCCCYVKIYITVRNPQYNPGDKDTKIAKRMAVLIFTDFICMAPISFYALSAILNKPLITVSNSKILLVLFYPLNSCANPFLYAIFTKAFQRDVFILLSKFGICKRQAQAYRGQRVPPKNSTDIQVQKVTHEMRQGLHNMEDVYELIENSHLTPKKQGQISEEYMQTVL
Sequence of UniProt P03372 (P03372 whole entry, looked up): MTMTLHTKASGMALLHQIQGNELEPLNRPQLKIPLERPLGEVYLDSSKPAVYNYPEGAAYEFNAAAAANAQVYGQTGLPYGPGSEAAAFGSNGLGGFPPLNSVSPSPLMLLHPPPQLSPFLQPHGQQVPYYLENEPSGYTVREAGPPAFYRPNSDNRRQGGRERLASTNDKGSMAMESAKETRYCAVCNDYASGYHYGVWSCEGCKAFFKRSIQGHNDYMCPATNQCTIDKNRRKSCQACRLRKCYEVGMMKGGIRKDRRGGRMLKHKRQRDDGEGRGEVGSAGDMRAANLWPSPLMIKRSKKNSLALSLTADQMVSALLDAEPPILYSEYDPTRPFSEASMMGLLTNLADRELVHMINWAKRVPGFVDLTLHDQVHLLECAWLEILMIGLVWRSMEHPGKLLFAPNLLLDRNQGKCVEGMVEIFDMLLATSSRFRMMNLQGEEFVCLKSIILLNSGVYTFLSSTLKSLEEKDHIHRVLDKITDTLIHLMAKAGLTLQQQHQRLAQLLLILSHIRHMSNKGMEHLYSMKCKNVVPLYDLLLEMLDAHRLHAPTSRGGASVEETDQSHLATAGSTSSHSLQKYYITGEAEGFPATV
Sequence of UniProt P10275 (P10275 whole entry, looked up): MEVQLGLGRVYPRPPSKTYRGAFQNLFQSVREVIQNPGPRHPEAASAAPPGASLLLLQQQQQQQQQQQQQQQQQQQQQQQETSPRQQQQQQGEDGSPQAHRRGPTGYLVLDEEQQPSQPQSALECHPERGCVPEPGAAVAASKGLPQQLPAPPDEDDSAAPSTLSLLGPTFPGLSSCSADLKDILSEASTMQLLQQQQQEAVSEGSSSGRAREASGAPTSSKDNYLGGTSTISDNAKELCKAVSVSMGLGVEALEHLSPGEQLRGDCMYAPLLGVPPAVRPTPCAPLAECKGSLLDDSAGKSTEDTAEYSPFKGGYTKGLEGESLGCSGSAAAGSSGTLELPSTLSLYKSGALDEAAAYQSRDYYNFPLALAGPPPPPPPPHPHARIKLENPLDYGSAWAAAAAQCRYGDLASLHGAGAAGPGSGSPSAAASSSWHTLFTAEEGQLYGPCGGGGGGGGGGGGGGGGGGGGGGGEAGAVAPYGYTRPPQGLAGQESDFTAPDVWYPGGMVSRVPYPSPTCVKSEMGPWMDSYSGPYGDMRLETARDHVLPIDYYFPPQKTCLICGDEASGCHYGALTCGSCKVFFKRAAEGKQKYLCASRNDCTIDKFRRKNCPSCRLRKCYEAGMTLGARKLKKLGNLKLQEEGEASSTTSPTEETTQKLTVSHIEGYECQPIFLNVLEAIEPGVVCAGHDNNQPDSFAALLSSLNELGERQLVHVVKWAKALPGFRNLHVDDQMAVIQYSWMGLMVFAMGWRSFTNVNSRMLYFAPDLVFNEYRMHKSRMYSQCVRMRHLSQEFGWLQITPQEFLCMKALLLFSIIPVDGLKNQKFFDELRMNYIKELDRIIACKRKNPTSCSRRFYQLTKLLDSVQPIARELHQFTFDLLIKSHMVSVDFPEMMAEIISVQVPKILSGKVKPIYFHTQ

Nc1ccc(Cl)c(Cl)c1
activity, negative = inhibition ([1]; at 92.4 µM (top of the series)): inactive: -19.1%

CCCCCOC(=O)c1ccccc1C(=O)OCCCCC
activity, negative = inhibition ([1]; at 92.4 µM (top of the series)): inactive: -4.58%

COP(=S)(OC)Oc1ccc(Sc2ccc(OP(=S)(OC)OC)cc2)cc1
Potency [2]: inconclusive: 0.0944 µM [rising, full curve, poor fit]

CC1COC(Cn2cncn2)(c2ccc(Oc3ccc(Cl)cc3)cc2Cl)O1 (centres undefined)
Potency [3]: inactive

NNc1ccccc1
activity change, negative = inhibition ([4]; at 42.5 µM (top of the series)): inactive: -14.4%
activity change, negative = inhibition ([4]; at 92.4 µM (top of the series)): inactive: -18% and inactive: -16.1% and inactive: -19.7%

CN(C)[C@@H]1C(=O)C(C(N)=O)=C(O)[C@@]2(O)C(=O)C3=C(O)c4c(O)cccc4[C@@](C)(O)[C@H]3[C@H](O)[C@@H]12
Potency [5]: inconclusive: 24.1 µM [cytotoxic, partial curve, poor fit] and inconclusive: 48.6 µM [cytotoxic, partial curve]
Potency [6]: inactive
Potency [7]: inconclusive: 27.3 µM [falling, partial curve]
Potency [8]: inconclusive: 15.2 µM [cytotoxic, full curve] and inconclusive: 54.5 µM [cytotoxic, partial curve]
Potency [9]: inconclusive: 23.7 µM [rising, full curve, poor fit]

Cc1ccccc1
Potency [1, 14]: inactive
Potency [10]: inactive

CN(C1CCCCC1)C1CCCCC1
Potency [1, 14]: inactive
activity change, negative = inhibition [4, 15]: inconclusive: 8.12%

O=C(CBr)Nc1ccc(Cl)cc1C(=O)c1ccccc1F
Potency [1, 14]: inactive
Potency [4, 15]: active: 21.1 µM

O=S(=O)(O)OOS(=O)(=O)O
Potency [1, 14]: inactive
Potency [4, 15]: inactive

COC(=O)Nc1cccc(OC(=O)Nc2cccc(C)c2)c1
Potency [1, 14]: inactive
Potency [4, 15]: inconclusive: 3.06 µM [falling, partial curve, poor fit]

BrCBr
Potency [1, 14]: inactive
Potency [11]: inactive

CC(C)(Cl)[N+](=O)[O-]
activity, negative = inhibition [1, 14]: inconclusive: -25.2%
Potency [4, 15]: inconclusive: 3.45 µM [falling, full curve]
Potency [9]: inconclusive: 54.7 µM [rising, partial curve]

CC1(C)CCC(Cc2ccc(Cl)cc2)C1(O)Cn1cncn1 (centres undefined)
Potency [5]: inconclusive: 68.6 µM [cytotoxic, partial curve, poor fit]
Potency [6]: inconclusive: 3.86 µM [cytotoxic, partial curve]
Potency [12]: inconclusive: 21.7 µM [cytotoxic, partial curve]
Potency [4, 15]: active: 4.33 µM
Potency [13]: inconclusive: 27.3 µM [rising, single point]

[O-][Cl+]O
Potency [1, 14]: inactive
Potency [9]: inactive

CCOP(=S)(OCC)Oc1cc(Cl)c(Br)cc1Cl
activity, negative = inhibition [1, 14]: inconclusive: -37%
Potency [4, 15]: inconclusive: 10.9 µM [rising, partial curve]
Potency [11]: inconclusive: 34.7 µM [cytotoxic, partial curve, poor fit]

CN(C)P(=O)(N(C)C)N(C)C
Potency [1, 14]: inactive
Potency [9]: inactive

CCCCN(CC)c1c([N+](=O)[O-])cc(C(F)(F)F)cc1[N+](=O)[O-]
Potency [1, 14]: inactive
Potency [9]: inconclusive: 15.4 µM [cytotoxic, single point]

CCCCCCCCCl
activity, negative = inhibition [1, 14]: inconclusive: -2.95%
activity change, negative = inhibition [4, 15]: inconclusive: 7.74% and inconclusive: 8.74%

CC(Cc1ccccc1)NCCCCl (centres undefined)
Potency [5]: inactive

Clc1cc(C(Cl)(Cl)Cl)cnc1Cl
Potency [1, 14]: inactive
Potency [7]: inactive
Potency [10]: inactive

Cc1c([N+](=O)[O-])cc2c(c1[N+](=O)[O-])C(C)(C)CC2(C)C
activity, negative = inhibition [1, 14]: inconclusive: -28%
Potency [4, 15]: inconclusive: 17.2 µM [full curve]
Potency [11]: inconclusive: 9.77 µM [cytotoxic, single point]

CCNc1nc(NC(C)(C)C)nc(SC)n1
activity, negative = inhibition [1, 14]: inconclusive: -28.4%
activation [10]: inconclusive: -8.82%
Potency [4, 15]: active: 47.9 µM and inconclusive: 61.1 µM
Potency [13]: inconclusive: 2.14 µM [cytotoxic, partial curve, poor fit] and inconclusive: 77 µM [cytotoxic, single point]
Potency [9]: inconclusive: 77 µM [cytotoxic, partial curve, poor fit]

CC1Sc2c(C(=O)O)c(=O)c3cc(F)c(N4CCNCC4)cc3n21 (centres undefined)
activity, negative = inhibition [1, 14]: inconclusive: 18.6% [at 42.5 µM]
Potency [9]: inactive

CSc1ccc(C(=O)C(C)(C)N2CCOCC2)cc1
Potency [1, 14]: inconclusive: 68.6 µM [inhibitor]
Potency [4, 15]: active: 27.3 µM
Potency [9]: inconclusive: 54.5 µM [rising, partial curve]
